# Results filed as inconclusive are left out. Calls follow the shape of the dose curve; as a rule, active = well fitted curve in the direction sought with a large enough effect; inconclusive = small, poorly fitted or top-dose-only effect, or another doubt; inactive = no such curve, though single readings can be large; an effect the other way counts as inactive or inconclusive. Some structures have more than one record in an assay (separate samples or runs), and their calls can disagree. A number of entries come with more than one value. The list is limited to them. An entry can have further records. Values given together repeat one measurement in other runs, samples, wells, individuals or studies. A tag in brackets gives the origin of a value. Letters count within one entry.
# Tests used:
# [1] = target: Parathyroid hormone/parathyroid hormone-related peptide receptor (Homo sapiens) (UniProt Q03431); test: qHTS for PTHR1 Agonists: Optimization Screen against the NCGC LOPAC library (AID 1347079);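 also: GloSensor cAMP luminescence in HEK-293 GP2 cells expressing human PTHR1 with IBMX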
# Summary of the method: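 HEK-293 GP2 cells, PTHR1 + GloSensor cAMP; 3000 cells/well, o/n. Luciferin + IBMX 0.5mM each (stock), 1 hr 37C. Cpd titration, 1 hr 37C. Lum after 15 min RT. Ctrl M-PTH(1-15) top 10uM.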
# [2] = target: N-terminal Xaa-Pro-Lys N-methyltransferase 1 (Homo sapiens) (UniProt Q9BV86); test: qHTS Assay for Inhibitors of N-terminal methyltransferase 1 (NTMT1): LOPAC validation of the NTMT1 SAHH-coupled ThioGlo3 Assay (AID 1347143);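 also: SAH from peptide methylation measured as thiol fluorescence via SAHH coupling and ThioGlo3; nearly all actives have a fitted effect of over 70% in size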
# Summary of the method: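 In this qHTS pilot against the LOPAC set, 125nM NTMT1 met compounds tested at multiple concentrations, and fluorescence was normalized to background.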
# [3] = target: Rap guanine nucleotide exchange factor 3 (Homo sapiens) (UniProt O95398); test: Confirmatory qHTS for agonist of cAMP-regulated guanine nucleotide exchange factor 3 (EPAC1) (AID 1645881); also: nearly all actives have a fitted effect of over 75% in size
# [4] = target: Rap guanine nucleotide exchange factor 4 (Homo sapiens) (UniProt Q8WZA2); test: Confirmatory qHTS for agonist of cAMP-regulated guanine nucleotide exchange factor 4 (EPAC2) (AID 1645884);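 also: nucleotide exchange releases bodipy-GDP from Rap1 and this lowers its fluorescence; nearly all actives have a fitted effect of over 65% in size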
# Potency is read from the fitted curve at half-maximal effect.
# Sequence of UniProt O95398 (O95398 whole entry, looked up): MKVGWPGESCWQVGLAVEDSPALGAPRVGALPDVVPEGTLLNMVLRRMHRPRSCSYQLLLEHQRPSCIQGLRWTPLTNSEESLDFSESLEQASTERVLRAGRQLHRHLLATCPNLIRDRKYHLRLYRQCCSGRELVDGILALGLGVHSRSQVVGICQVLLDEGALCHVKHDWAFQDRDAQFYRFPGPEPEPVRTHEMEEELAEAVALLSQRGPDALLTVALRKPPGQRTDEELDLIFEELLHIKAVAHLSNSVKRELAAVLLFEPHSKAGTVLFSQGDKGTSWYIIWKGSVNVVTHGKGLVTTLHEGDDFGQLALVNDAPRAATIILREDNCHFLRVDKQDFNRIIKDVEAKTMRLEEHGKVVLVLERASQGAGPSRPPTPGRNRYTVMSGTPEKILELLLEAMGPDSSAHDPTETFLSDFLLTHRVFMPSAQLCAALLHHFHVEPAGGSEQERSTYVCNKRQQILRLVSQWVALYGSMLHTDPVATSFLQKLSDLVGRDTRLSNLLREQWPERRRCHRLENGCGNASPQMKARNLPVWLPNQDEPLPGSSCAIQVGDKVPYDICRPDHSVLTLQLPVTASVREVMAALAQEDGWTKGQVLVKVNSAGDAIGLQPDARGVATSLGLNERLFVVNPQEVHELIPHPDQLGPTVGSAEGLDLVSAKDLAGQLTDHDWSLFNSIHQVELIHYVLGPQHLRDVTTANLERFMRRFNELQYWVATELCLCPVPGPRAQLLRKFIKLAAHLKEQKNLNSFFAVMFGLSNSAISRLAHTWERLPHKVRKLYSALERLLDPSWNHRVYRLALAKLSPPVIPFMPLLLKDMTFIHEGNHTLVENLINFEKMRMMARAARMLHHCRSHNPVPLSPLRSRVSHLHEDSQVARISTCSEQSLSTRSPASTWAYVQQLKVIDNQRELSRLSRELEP
# Sequence of UniProt Q8WZA2 (Q8WZA2 whole entry, looked up): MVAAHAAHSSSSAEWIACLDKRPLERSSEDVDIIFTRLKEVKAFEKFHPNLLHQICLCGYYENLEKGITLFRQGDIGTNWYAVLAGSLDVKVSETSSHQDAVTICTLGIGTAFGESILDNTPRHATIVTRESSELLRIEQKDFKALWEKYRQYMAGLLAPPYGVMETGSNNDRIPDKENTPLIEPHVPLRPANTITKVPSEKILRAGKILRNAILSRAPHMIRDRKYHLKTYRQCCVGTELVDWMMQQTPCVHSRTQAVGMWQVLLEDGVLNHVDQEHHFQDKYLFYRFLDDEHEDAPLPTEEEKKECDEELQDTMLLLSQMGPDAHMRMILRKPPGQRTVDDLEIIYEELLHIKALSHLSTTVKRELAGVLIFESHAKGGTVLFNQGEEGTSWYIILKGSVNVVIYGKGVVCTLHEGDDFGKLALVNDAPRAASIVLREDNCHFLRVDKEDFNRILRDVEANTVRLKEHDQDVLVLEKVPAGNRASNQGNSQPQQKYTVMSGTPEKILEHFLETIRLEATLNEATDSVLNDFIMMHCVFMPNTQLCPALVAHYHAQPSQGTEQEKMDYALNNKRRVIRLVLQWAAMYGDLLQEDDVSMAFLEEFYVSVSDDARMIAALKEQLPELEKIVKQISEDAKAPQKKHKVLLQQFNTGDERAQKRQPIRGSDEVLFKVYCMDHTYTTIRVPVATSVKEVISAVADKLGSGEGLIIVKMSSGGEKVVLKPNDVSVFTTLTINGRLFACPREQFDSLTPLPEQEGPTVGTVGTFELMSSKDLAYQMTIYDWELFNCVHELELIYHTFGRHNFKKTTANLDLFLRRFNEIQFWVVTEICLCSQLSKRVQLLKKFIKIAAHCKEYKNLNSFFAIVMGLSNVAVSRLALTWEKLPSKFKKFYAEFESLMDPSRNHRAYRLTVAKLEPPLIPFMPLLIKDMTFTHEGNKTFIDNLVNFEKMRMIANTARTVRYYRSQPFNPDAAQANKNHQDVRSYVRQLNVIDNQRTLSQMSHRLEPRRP
# Sequence of UniProt Q9BV86 (Q9BV86 whole entry, looked up): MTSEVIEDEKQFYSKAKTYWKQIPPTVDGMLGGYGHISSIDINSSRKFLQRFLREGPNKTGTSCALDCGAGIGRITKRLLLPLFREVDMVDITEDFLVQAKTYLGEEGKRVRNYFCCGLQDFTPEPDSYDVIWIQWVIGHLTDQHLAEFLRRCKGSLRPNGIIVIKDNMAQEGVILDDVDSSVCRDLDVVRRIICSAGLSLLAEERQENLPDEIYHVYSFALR
# Sequence of UniProt Q03431 (Q03431 whole entry, looked up): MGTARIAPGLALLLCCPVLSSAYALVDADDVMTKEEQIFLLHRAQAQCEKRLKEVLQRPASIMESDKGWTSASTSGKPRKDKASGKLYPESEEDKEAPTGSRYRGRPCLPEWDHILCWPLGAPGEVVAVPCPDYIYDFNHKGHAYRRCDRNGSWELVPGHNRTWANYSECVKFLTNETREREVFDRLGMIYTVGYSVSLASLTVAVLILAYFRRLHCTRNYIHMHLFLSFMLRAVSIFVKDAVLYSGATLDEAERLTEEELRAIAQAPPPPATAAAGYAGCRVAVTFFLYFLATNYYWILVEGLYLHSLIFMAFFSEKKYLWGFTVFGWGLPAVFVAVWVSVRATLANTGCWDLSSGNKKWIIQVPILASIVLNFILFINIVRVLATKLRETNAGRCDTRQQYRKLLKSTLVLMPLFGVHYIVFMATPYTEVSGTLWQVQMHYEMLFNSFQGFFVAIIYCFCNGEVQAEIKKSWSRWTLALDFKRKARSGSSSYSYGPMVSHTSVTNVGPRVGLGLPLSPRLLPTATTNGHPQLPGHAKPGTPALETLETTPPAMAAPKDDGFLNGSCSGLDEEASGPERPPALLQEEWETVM
compound,measurement,setting,value
CC(C)NC[C@H](O)c1ccc(O)c(O)c1,Potency,[1],active: 67 nM [sample A] and inactive [sample B]
CC(C)(C)[C@]1(O)CCN2C[C@H]3c4ccccc4CCc4cccc(c43)[C@@H]2C1,Potency,[2],active: 50.1 µM [sample A] and inactive [sample B]
Cc1cc2nc3c(=O)[nH]c(=O)nc-3n(C[C@H](O)[C@H](O)[C@H](O)CO)c2cc1C,Potency,[3],active: 63 µM [sample A] and active: 25.1 µM [sample B] and inactive [sample C]
same,Potency,[4],inactive [sample A] and inactive [sample B] and active: 37 µM [sample C]

# — PubChem BioAssay (NCATS)
